Test results taken from PubChem BioAssay AID743279 (National Center for Advancing Translational Sciences (NCATS), 2014).
The campaign covered roughly 360,000 compounds. About 17,000 (4.7%) were called active. The inconclusive results got no clear call from the source; some entries with a clear call stand among them for comparison. Rule as the data show it: active = activity change below about -50%; inconclusive = mostly about -30% to -49%; inactive = weaker than that.

Experiment: qHTS for Inhibitors of Inflammasome Signaling: IL-1-beta AlphaLISA Primary Screen
Settings: THP-1 LPS/ATP IL-1B secretion, 16 h; at 57.5 µM, stronger effect = lower value
Procedure, shortened: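 Secreted IL-1B measured by AlphaLISA bead assay after 16 h compound exposure of THP-1 cells; compounds (final up to 57.5 uM) added 1 h before LPS (250 ng/mL) and ATP (1.25 mM) stimulation; lower signal means less secretion.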
% is scaled to controls: 0 for no effect and ±100 for the full control effect.

SMILES | activity change
O=C(NCc1cccs1)c1cc2c(s1)-c1ccccc1OC2 | inconclusive: -40.5%
Cc1ccc(C)c(C(C)NC(=S)NC2CCCCC2)c1 (configuration not stated) | inactive: 30.7%
O=C(Nc1ccc(Cl)c(Cl)c1)N(CCCN1CCOCC1)Cc1cccs1 | inconclusive: -47.3%
CCCn1c(NCc2ccc(N(C)C)cc2)nc2ccccc21 | inconclusive: -30.1%
Cc1cccc(C)c1NC(=O)COC(=O)c1ccccc1[N+](=O)[O-] | inactive: 17.9%
N#Cc1c(NC(NC(=O)c2ccco2)C(=O)c2ccccc2)sc2c1CCCC2 (configuration not stated) | inconclusive: -31%
Cc1ccc(S(=O)(=O)n2cnc3ccccc32)cc1[N+](=O)[O-] | inconclusive: -38.9%
Cc1noc(C)c1CN(C(=S)NC1CC2CCC1C2)c1ccccc1 (configuration not stated) | inconclusive: -30.8%
O=C(NCc1ccccn1)Nc1ccc(Br)cc1Cl | inconclusive: -45.9%
O=S1(=O)CC(N2CC=CC2)CN1Cc1cn(Cc2cccc(C(F)(F)F)c2)nn1 (configuration not stated) | inactive: 6.73%
CC(Sc1nn(-c2ccc(F)cc2)c(=S)s1)C(=O)c1c(N)n(C)c(=O)n(C)c1=O (configuration not stated) | inactive: -6.08%
COc1ccc(-c2cc(C(F)(F)F)nc(S(=O)(=O)CCCC(=O)Nc3cccc(O)c3)n2)cc1OC | active: -146%
CN(CC(=O)Nc1cccc(F)c1)CC(=O)Nc1cccc(S(=O)(=O)N2CCCCCC2)c1 | inconclusive: -43.5%
CCCc1sc(N)nc1-c1ccc(C)cc1 | inactive: -5.91%
Cc1ccccc1NC(=O)Nc1nc(C(N)c2ccccc2)cs1 (configuration not stated) | inconclusive: -36.7%
NC(CCc1ccccc1)c1csc(NC(=O)Nc2cccc(Cl)c2)n1 (configuration not stated) | active: -60.5%
CC(=O)c1c(C)[nH]c(C(=O)Nc2ccc(Cl)cc2)c1C | inactive: -3.16%
O=C1CCCCC1Sc1nnc(Cc2cccs2)n1CCc1ccccc1 (configuration not stated) | inconclusive: -49.7%
O=C(Cn1cnc2sc3c(c2c1=O)CCCC3)NCC(=O)Nc1ccc(F)cc1F | inactive: 30.4%
Cc1cccc(NC(=S)NCc2ccccn2)c1 | inactive: -4.08%
O=S(=O)(NCC1CCCO1)c1ccccc1F (configuration not stated) | inactive: 12.8%
O=C(/C=C/c1ccc(F)cc1)N1CCCc2ccccc21 | inconclusive: -43.8%

SMILES | activity change
Cc1ccccc1-c1nc(CN2CCC(C(=O)NCCC3=CCCCC3)CC2)c(C)o1 | active: -60.8%
Cc1cc(=O)oc2cc(OCC(=O)Nc3nccs3)ccc12 | inactive: -6.14%
CSc1ncc(Cl)c(C(=O)Nc2ccc(NC(C)=O)cc2)n1 | inactive: -17.5%
COc1ccc(CNC(=O)CN2C(=O)NC(Cc3ccccc3)(c3ccccc3)C2=O)cc1OC (configuration not stated) | inconclusive: -45.7%
CCOc1cc(/C=C2\C(=O)ON=C2c2ccccc2)ccc1OC | active: -94%
Cc1cccc(NC(=S)N(CCCN(C)C)Cc2cc3cc4c(cc3[nH]c2=O)OCO4)c1 | active: -72.7%
CCCOC(=O)CSc1nc(N)c(C#N)c(-c2ccco2)c1C#N | active: -88.4%
S=C(NCCc1ccc(Cl)cc1)Nc1ccc(Cl)cc1Cl | active: -78.7%
Cc1ccccc1COc1cccn2c(N(C)C(=O)CCC3CCCC3)c(C)nc12 | active: -56.7%
COc1ccc(C2=NOC(Cn3nc(C(=O)NCc4ccc(OC(F)(F)F)cc4)cc3-c3ccccc3)C2)cc1 (configuration not stated) | inconclusive: -33.1%
CCN(CC(=O)Nc1ccc(OC)cc1)C(=O)Cc1ccsc1 | inactive: 3.51%
COc1ccc(COC(=O)N/N=C/c2cccs2)cc1 | inconclusive: -30.7%
CCN(CC)CCCn1c2c(c(SCC(=O)Nc3ccc4c(c3)OCO4)nc1=O)CCC2 | inconclusive: -34.7%
COc1ccc(/C=C2\CCC(C3CCCC3)C2=O)cc1Cn1nc(C)cc1C (configuration not stated) | inactive: 3.67%
Cc1ccc(NC(=O)c2cc(C)nc3ccccc23)c(C)c1 | inactive: 20.2%
COc1ccc(OCC(O)CN(CC(O)COc2ccc(OC)cc2)c2cccc(O)c2)cc1 (configuration not stated) | active: -50.1%
CCOc1ccc(N2C(=O)CC(N(CCc3ccc(OC)cc3)C(=O)/C=C/C(=O)O)C2=O)cc1 (configuration not stated) | inactive: -8.3%
O=C(Nc1ccc(N2CCN(C(=O)c3ccccc3)CC2)c(Cl)c1)c1cccnc1 | active: -81.2%
COc1ccc(N(C(=O)C2CCCCC2)S(=O)(=O)c2cccc3cccnc23)cc1 | active: -51.9%
Clc1ccc(Cn2cc(Br)cn2)cc1Cl | inconclusive: -30.8%
CCOc1ccc(S(=O)(=O)Nc2cc(SCC(=O)O)c(O)c3ccccc23)cc1 | inactive: 94.3%
Cc1ccc(S(=O)(=O)N2CCN(C(=O)c3cc4c(C)nn(-c5ccccc5C)c4s3)CC2)cc1 | inconclusive: -37.2%

SMILES | activity change
COc1ccccc1CC(=O)NCCc1ccccc1 | inconclusive: -39.4%
CC1CCCC(C)N1C(=O)COC(=O)CNS(=O)(=O)c1ccc2ccccc2c1 (configuration not stated) | inactive: 15.8%
CC(C)(C)c1ccccc1NC(=O)Nc1nc(C(N)Cc2ccc(F)cc2)cs1 (configuration not stated) | active: -53.3%
CN(C)c1ccc(C(c2nnnn2C(C)(C)C)N2CCN(C(=O)c3ccco3)CC2)cc1 (configuration not stated) | inactive: -4.36%
CCCCn1c(N)c(N(CC)C(=O)c2cc(S(=O)(=O)N3CCN(CC)CC3)ccc2Cl)c(=O)[nH]c1=O | inactive: 0%
C[C@@H]1CN([C@@H](C)CO)C(=O)c2cc(NC(=O)c3ccccc3)ccc2O[C@@H](C)CCCCO[C@@H]1CN(C)Cc1ccc(C(F)(F)F)cc1 | inconclusive: -30%
CN(C)CC(C(=O)c1ccccc1)c1ccccc1 (configuration not stated) | active: -101%
CSCCC(NS(=O)(=O)c1ccccc1F)C(=O)NC(C)c1ccccc1 (configuration not stated) | inconclusive: -34.2%
Cc1ccc(-n2nc(C)c(NC(=O)CCl)c2C)cc1 | active: -88.8%
Nn1c(SCC(=O)Nc2ccc(OC(F)F)cc2)nnc(Cc2ccccc2)c1=O | inconclusive: -45.3%
CCc1cc2c(=O)n(Cc3ccco3)c(SCc3c(C)noc3C)nc2s1 | inactive: -5.04%
COc1cc2c(cc1NC(=O)CSc1nnc(Cc3cccs3)n1Cc1ccco1)oc1ccccc12 | inconclusive: -42.4%
COc1ccc(CCNC(=O)Nc2nc(C(N)Cc3ccccc3)cs2)cc1OC (configuration not stated) | inconclusive: -46.5%
O=[N+]([O-])c1ccc(/C=N/NC2=NS(=O)(=O)c3ccccc32)cc1 | inactive: -17.2%
O=Cc1cn(-c2ccccc2)nc1-c1cccc([N+](=O)[O-])c1 | inconclusive: -39.3%
COc1cc(C2C(c3ccccc3)C(c3cc(OC)cc(=O)o3)C2c2ccccc2)oc(=O)c1 (configuration not stated) | inconclusive: -34.4%
O=C(Nc1ccnn1C1CCN(Cc2c[nH]c3ccccc23)CC1)c1ccccc1 | inconclusive: -42%
CCn1nnc(NC(=O)c2cccnc2Cl)n1 | inconclusive: -44.3%
COc1ccc(CNC(=O)Cc2csc(NC(=O)Nc3ccccc3OC)n2)cc1 | inconclusive: -34.4%
O=C(Nc1nc2ccc([N+](=O)[O-])cc2s1)C1CCCO1 (configuration not stated) | inconclusive: -36.7%
Cc1nc2ccc(NC(=O)c3cncc(Br)c3)cc2s1 | inconclusive: -39%
CCc1ccc(C(=O)Nc2ccc(OC)c(S(=O)(=O)N3CCCCC3)c2)cc1 | inactive: -20.8%

SMILES | activity change
CC1CCCN(c2ccc(/C=C(\C#N)c3nn(-c4ccccc4)c(N)c3C#N)cc2[N+](=O)[O-])C1 (configuration not stated) | inconclusive: -39.1%
CN(C)c1ccc(C(=O)/C=C/c2ccccc2)cc1 | active: -102%
CC1Cc2cc(S(=O)(=O)N3CCC(C(=O)Nc4ccccn4)CC3)ccc2N1C(=O)C1CCC1 (configuration not stated) | inconclusive: -43.8%
O=C(NCCc1ccc(F)cc1)c1cccc(NC(=O)c2ccccc2)c1 | inconclusive: -45%
COc1ccc(N2CCN(C(=O)c3ccc(N(C)S(=O)(=O)c4ccc(OC)cc4)cc3)CC2)cc1 | inconclusive: -34.2%
OCCNc1ncnc2c1ncn2[C@H]1CN(C2CCCC2)C[C@@H](CO)O1 | inactive: 22.2%
O=C(COc1ccc2c3c(c(=O)oc2c1)CCC3)NCc1ccncc1 | inconclusive: -45.6%
Cc1ccc(S(=O)(=O)N2CCN(C(=O)CSc3ncc(C(F)(F)F)cc3Cl)CC2)cc1 | inconclusive: -44%
CCOC(=O)C1CCN(C(=O)C(C)N(c2ccc(Oc3ccccc3)cc2)S(C)(=O)=O)CC1 (configuration not stated) | inactive: 12.3%
COC(=O)C(=O)C1CCc2c(Cl)cc(OC)c(OC)c2C1=O (configuration not stated) | inactive: 23.6%
Nc1nc(NCCc2ccccc2)nc(NCCO)c1[N+](=O)[O-] | inactive: 110%
O=C(O)c1ccc(NC(=O)c2cn(-c3ccccc3)nc2-c2ccc(Cl)cc2)cc1 | active: -53.3%
CC1CC2(C)C(=CC1=O)CCC1C2C(O)CC2(C)C1CCC2(O)C(=O)CO (configuration not stated) | inconclusive: -30.7%
Cc1ccc(-c2cc(C(F)(F)F)n3nc(C(=O)N4CCN5CCCC5C4)cc3n2)cc1 (configuration not stated) | active: -62.3%
Fc1ccccc1N=C1NN=C(c2ccccc2)CS1 | active: -90.5%
CCc1ccccc1NC(=O)c1ccc(CN2CCC(Cc3ccccc3)CC2)cc1 | active: -79.5%
CCNc1ccccc(-c2ccc3ccccc3n2)c1=O | inactive: 18.1%
CCOc1ccccc1CNC(=O)Cn1ccc2cc(S(=O)(=O)N3CCCC3)ccc21 | inconclusive: -31.8%
CC(=O)N1N=C(c2ccc(C)cc2)OC1c1cccnc1 (configuration not stated) | inactive: -19.6%
Cc1cccc(C)c1-n1nnnc1C(c1cc2ccccc2o1)N1CCN(C/C=C/c2ccccc2)CC1 (configuration not stated) | inactive: -11.2%
COc1ccc(N2CC(C(=O)Nc3cccc(OC(C)C)c3)CC2=O)cc1 (configuration not stated) | inactive: 11.4%
